Hit rate of the full screen: of about 310,000 compounds, about 14,000 (4.5%) showed an effect of 50% or more. Effects have a minus sign here. Some of the results follow.
molecular target: human ether-à-go-go-related gene (hERG) potassium channel (human, UniProt Q12809); assay: primary screen, population patch clamp on CHO cells stably expressing hERG
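Note: peak tail current of the secondary pulse compared with the same well before compound.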

Chain of human ether-à-go-go-related gene (hERG) potassium channel (Q12809 whole entry, looked up): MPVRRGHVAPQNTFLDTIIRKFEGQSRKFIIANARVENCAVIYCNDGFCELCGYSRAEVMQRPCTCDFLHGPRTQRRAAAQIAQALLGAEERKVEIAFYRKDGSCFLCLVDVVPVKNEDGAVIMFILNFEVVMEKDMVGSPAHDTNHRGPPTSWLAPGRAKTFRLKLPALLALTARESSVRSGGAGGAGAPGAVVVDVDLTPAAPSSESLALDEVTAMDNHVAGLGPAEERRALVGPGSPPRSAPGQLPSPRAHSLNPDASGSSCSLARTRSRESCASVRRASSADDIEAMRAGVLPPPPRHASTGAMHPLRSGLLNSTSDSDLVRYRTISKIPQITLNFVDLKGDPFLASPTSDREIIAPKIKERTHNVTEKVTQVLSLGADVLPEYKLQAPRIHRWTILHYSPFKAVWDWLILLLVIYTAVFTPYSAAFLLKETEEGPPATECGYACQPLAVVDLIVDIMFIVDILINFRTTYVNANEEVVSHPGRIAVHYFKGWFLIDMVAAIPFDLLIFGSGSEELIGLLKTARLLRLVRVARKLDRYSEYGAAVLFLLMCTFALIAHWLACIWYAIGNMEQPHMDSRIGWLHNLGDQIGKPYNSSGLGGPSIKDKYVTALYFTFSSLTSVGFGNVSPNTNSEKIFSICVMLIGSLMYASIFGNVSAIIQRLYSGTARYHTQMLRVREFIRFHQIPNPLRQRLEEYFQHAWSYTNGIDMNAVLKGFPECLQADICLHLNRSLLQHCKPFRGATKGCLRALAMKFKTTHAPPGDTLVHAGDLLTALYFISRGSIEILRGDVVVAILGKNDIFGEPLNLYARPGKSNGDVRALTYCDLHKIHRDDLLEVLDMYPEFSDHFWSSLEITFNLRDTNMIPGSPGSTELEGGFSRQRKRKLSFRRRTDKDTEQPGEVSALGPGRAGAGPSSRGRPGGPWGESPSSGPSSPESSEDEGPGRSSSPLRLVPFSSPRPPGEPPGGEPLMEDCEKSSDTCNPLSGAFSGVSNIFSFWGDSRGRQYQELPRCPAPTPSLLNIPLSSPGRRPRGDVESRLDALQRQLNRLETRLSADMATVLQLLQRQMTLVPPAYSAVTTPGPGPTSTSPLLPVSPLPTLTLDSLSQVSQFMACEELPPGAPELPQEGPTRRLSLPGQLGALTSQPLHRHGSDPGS

Compared with Cc1ccc(S(=O)(=O)N2CCCCC2)cc1NC(=O)CSc1ncccn1, O=C(CSc1n[nH]c(-c2ccccc2Cl)n1)NC1CCCCC1 is higher in “hERG current change (%, negative = inhibition) at 10uM” value: -15.8% for the first, 3.06% for the second.

Going from CN(C)C(=O)C[n+]1ccc(C(N)=O)cc1.[Cl-] to CCCC(CCC(=O)Nc1ccc(S(N)(=O)=O)cc1)C(=O)O (stereo not shown), the “hERG current change (%, negative = inhibition) at 10uM” value rises from 6.48% to 10.8%.

Compared with CN(C)c1oc(-c2ccc(Cl)cc2)nc1S(=O)(=O)c1ccccc1, CCSc1oc(-c2cccs2)nc1S(=O)(=O)c1ccccc1 is higher in “hERG current change (%, negative = inhibition) at 10uM” value: 3.14% for the first, 11.1% for the second.

Compared with CCCn1c(N)c(N(CCOC)C(=O)C2CCCC2)c(=O)[nH]c1=O, CCCCn1c(N)c(N(CCC(C)C)C(=O)C2CSC3(C)CCC(=O)N23)c(=O)[nH]c1=O (stereo not shown) is lower in “hERG current change (%, negative = inhibition) at 10uM” value: -0.462% for the first, -2.67% for the second.

Going from CNC(=S)N1CCC(Cc2ccccc2)CC1 to CCN(CC)S(=O)(=O)c1ccc(NC2CCN(Cc3ccccc3)CC2)nc1, the “hERG current change (%, negative = inhibition) at 10uM” value falls from -0.0992% to -57.9%.

First: COc1ccccc1N1CCN(CCCNc2cc(=O)n(C)c(=O)n2C)CC1.Cl
Second: Cc1cccc(-n2ncc3c(NCCCN4CCCC4=O)ncnc32)c1
The “hERG current change (%, negative = inhibition) at 10uM” value of the first is higher: -12.7% for the first, -22.7% for the second.

Compared with O=C(N/N=C1\C2CN3CCN(C2)CC1(c1ccccc1)C3)c1ccc(F)cc1, CCOC(=O)c1c(-c2ccccc2)csc1NC(=O)c1ccc(N2C(=O)CCC2=O)cc1 is higher in “hERG current change (%, negative = inhibition) at 10uM” value: 2.31% for the first, 5.41% for the second.

Going from Cc1ccccc1OCC(=O)OCC(=O)NCc1cccs1 to CCOC(=O)Cc1csc(NC(=O)Nc2cccs2)n1, the “hERG current change (%, negative = inhibition) at 10uM” value rises from 1.72% to 9.01%.

Compared with Cc1ccc(-c2cc(C(F)(F)F)n3ncc(C(=O)N4CCN(C)CC4)c3n2)cc1, Cc1ccc(C)c(N2CCN(C(=O)c3ccc(Cl)c(NC4=NC5CS(=O)(=O)CC5S4)c3)CC2)c1 (stereo not shown) is higher in “hERG current change (%, negative = inhibition) at 10uM” value: -7.6% for the first, 6.26% for the second.

Compared with CC1c2ccccc2SC(CCCN(C)C)c2ccccc21.O=C(O)/C=C\C(=O)O (stereo not shown), CC(C)CC(=O)NC(=S)Nc1cccc(NC(=O)c2ccccc2Cl)c1 is higher in “hERG current change (%, negative = inhibition) at 10uM” value: -19.2% for the first, -8.32% for the second.

Compared with COc1ccc(S(=O)(=O)Nc2cccc(/C=C/C(=O)O)c2)cc1, COc1ccc(CN(C)C(=O)c2cccc(NS(=O)(=O)c3ccccc3)c2)c(OC)c1 is lower in “hERG current change (%, negative = inhibition) at 10uM” value: 9.65% for the first, -8.5% for the second.

First: CS(=O)(=O)Nc1cccc(C2=NN(C(=O)c3ccco3)C(c3cccs3)C2)c1 (stereo not shown)
Second: O=C(Nc1ncc2c(n1)CC(c1cccc(Cl)c1)CC2=O)c1ccco1 (stereo not shown)
The “hERG current change (%, negative = inhibition) at 10uM” value of the first is lower: -59% for the first, -39% for the second.

First: CC1=C([N+](=O)[O-])C(c2ccc(Cl)cc2)NC(=O)N1C (stereo not shown)
Second: O=CC1=C(N2CCOCC2)/C(=C/c2ccc(Cl)cc2)CC1
The “hERG current change (%, negative = inhibition) at 10uM” value of the first is lower: -11.5% for the first, 9.85% for the second.

Going from Cc1noc(C)c1COC(=O)c1ccc(-c2nc3ccccc3s2)s1 to COc1cccc(OC)c1C(=O)NC(=O)Nc1c(C)cccc1C, the “hERG current change (%, negative = inhibition) at 10uM” value rises from -2.33% to 5.78%.

Compared with Cc1ccc(C2(C)NC(=O)N(CC(=O)N(C)CC(=O)Nc3cccc4ccccc34)C2=O)cc1 (stereo not shown), C[C@@H](NC(=O)Cn1ccc(N)nc1=O)c1cccc2ccccc12 is higher in “hERG current change (%, negative = inhibition) at 10uM” value: 2.52% for the first, 18% for the second.

Going from Cc1cccc(C)c1NC(=S)N(Cc1ccccc1)Cc1cccnc1 to Cc1sc2ncn(CC(=O)Nc3ccccc3F)c(=O)c2c1-c1ccccc1, the “hERG current change (%, negative = inhibition) at 10uM” value falls from 1.4% to -0.62%.

First: COc1cc(C2NCCC(=O)C2(C)C)cc(OC)c1OC.Cl (stereo not shown)
Second: COc1ccc(CNC(=O)Nc2cccc(C(F)(F)F)c2)cc1OC
The “hERG current change (%, negative = inhibition) at 10uM” value of the first is lower: -0.479% for the first, 14.1% for the second.

Compared with NC(=O)Nc1ccc(C(=O)OCC(=O)Nc2ccc(Cl)cn2)cc1, CCOC(=O)c1ccc(CN2Cc3ccccc3C2=O)cc1 is lower in “hERG current change (%, negative = inhibition) at 10uM” value: 15.2% for the first, 2.17% for the second.

Compared with O=C(CSc1nnc2c(Cl)cc(Cl)cn12)N1CCN(c2ccc(F)cc2)CC1, O=C1COc2ccc(C(=O)CSc3ccccc3C(=O)O)cc2N1 is higher in “hERG current change (%, negative = inhibition) at 10uM” value: -51.5% for the first, 12.1% for the second.

First: Cn1c(-c2ccccc2Br)n[nH]c1=S
Second: Cc1ccc(OCCn2c(=O)sc3ccccc32)cc1
The “hERG current change (%, negative = inhibition) at 10uM” value of the first is higher: 18.8% for the first, 4.98% for the second.

Compared with COc1cc(NS(=O)(=O)c2ccc(N/C=C(\C=O)c3nc4cc(Cl)ccc4o3)cc2)nc(OC)n1, O=S(=O)(Nc1ccc(Cc2ccncc2)cc1)c1ccc(Br)cc1 is lower in “hERG current change (%, negative = inhibition) at 10uM” value: -2.34% for the first, -41.2% for the second.

First: N#CC1=C(N)Oc2c(c(=O)oc3ccccc23)C1c1ccc([N+](=O)[O-])o1 (stereo not shown)
Second: CCOC(=O)C(C)n1nc(/C=C/c2ccccc2)ccc1=O (stereo not shown)
The “hERG current change (%, negative = inhibition) at 10uM” value of the first is higher: 45.8% for the first, -1.5% for the second.

Going from CCCc1nn(C)c(C(=O)Nc2ccc(C)c(C)c2)c1Cl to CCCN1Cc2cccc(C(=O)NC(CC(=O)OCC)c3ccc(OCC)c(OC)c3)c2C1=O (stereo not shown), the “hERG current change (%, negative = inhibition) at 10uM” value falls from -10% to -31.2%.

Compared with CC(C)Cn1c(CCC(=O)O)ccc1-c1cccs1, CCN(CC)S(=O)(=O)c1cc(NC(=O)C2CC(=O)N(Cc3ccccc3)C2)ccc1Cl (stereo not shown) is lower in “hERG current change (%, negative = inhibition) at 10uM” value: 4.38% for the first, -37.8% for the second.

Compared with Cc1ccc(S(=O)(=O)NC(C)C(=O)NC2CC2)cc1 (stereo not shown), CN1C2CCC1CC(OC(=O)c1c[nH]c3ccccc13)C2 (stereo not shown) is lower in “hERG current change (%, negative = inhibition) at 10uM” value: 21.4% for the first, -59.1% for the second.

First: CCCCN(C(=O)CN1CC(C)OC(C)C1)c1c(N)n(CC(C)C)c(=O)[nH]c1=O (stereo not shown)
Second: CC(=O)OCC(=O)[C@@]1(O)CC[C@H]2[C@@H]3CCC4=CC(=O)C=C[C@]4(C)[C@@]3(F)[C@@H](O)C[C@@]21C
The “hERG current change (%, negative = inhibition) at 10uM” value of the first is higher: 9.06% for the first, 6.6% for the second.

Going from COc1ccc(/C=C2\SC(=O)N(CC(=O)Nc3ccccc3O)C2=O)cc1OC to CN(c1ccc(OC(=O)c2ccc(-n3cncn3)c([N+](=O)[O-])c2)cc1)S(=O)(=O)c1ccccc1, the “hERG current change (%, negative = inhibition) at 10uM” value falls from 9.72% to -16.2%.

For CC(C)(C)C(=O)Nc1sc2c(c1C#N)CCC2, the “hERG current change (%, negative = inhibition) at 10uM” value was 21.8%.

Source: paper PMC4336329 (PLoS ONE, 2015)
